From the supplement of paper PMC11876631 come the findings set out here.

Substitutions are numbered along the chain they refer to. Numbers in names are those of the source. ± gives the standard deviation of the averaged measurements. Laboratory Escherichia coli strains with one amino-acid change in an essential protein, pooled on minimal glucose agar with carbenicillin or gentamicin at twice the control MIC (plus kanamycin and chloramphenicol for the plasmids), 48 h. Fold change of barcode share against drug-free plates; higher = less susceptible. Active = above 20 in both replicates (the paper's putatively resistant). '<' = one read or none on drug, '>' = one read or none on a drug-free plate. Shares are relative, so most strains fall below 1 when a few take over. Listed are strains with at least 15 reads on both drug-free plates, and hits; most hits rest on fewer reference reads. Replicate rank correlation about 0.5. Edits are read from barcodes.

This series addresses Escherichia coli (laboratory strain). As to the kind of experiment: barcode share on antibiotic plates over drug-free plates; higher = less susceptible. As for the experimental part:
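A pool of E. coli strains, each edited to carry one amino-acid change in an essential protein, was grown for 48 h on minimal glucose agar with or without antibiotic; strain barcodes were sequenced; mean of two replicates.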

The mark [1] stands for this setting: antibiotic: carbenicillin, 2× MIC (3.1 µg/mL).
[2] abbreviates: antibiotic: gentamicin, 2× MIC (MIC 0.45 µg/mL).

B1: murE F204Q (protein)
chain: MADRNLRDLLAPWVPDAPSRALREMTLDSRVAAAGDLFVAVVGHQADGRRYIPQAIAQGVAAIIAEAKDEATDGEIREMHGVPVIYLSQLNERLSALAGRFYHEPSDNLRLVGVTGTNGKTTTTQLLAQWSQLLGEISAVMGTVGNGLLGKVIPTENTTGSAVDVQHELAGLVDQGATFCAMEVSSHGLVQHRVAALKFAASVQTNLSRDHLDYHGDMEHYEAAKWLLYSEHHCGQAIINADDEVGRRWLAKLPDAVAVSMEDHINPNCHGRWLKATEVNYHDSGATIRFSSSWGDGEIESHLMGAFNVSNLLLALATLLALGYPLADLLKTAARLQPVCGRMEVFTAPGKPTVVVDYAHTPDALEKALQAARLHCAGKLWCVFGCGGDRDKGKRPLMGAIAEEFADVAVVTDDNPRTEEPRAIINDILAGMLDAGHAKVMEGRAEAVTCAVMQAKENDVVLVAGKGHEDYQIVGNQRLDYSDRVTVARLLGVIA
Regarding B1, the “fold change of barcode share” value is 0.129 ± 0.11 under setting [1] and less than 0.0174 under setting [2].

B2: murE I64A (protein)
chain: B1 chain with I64A, Q204F
Turning to B2, the “fold change of barcode share” value amounted to 0.306 ± 0.063 under setting [1] and 0.0131 ± 0.012 under setting [2].

B3: murE V355A (protein)
chain: B1 chain with Q204F, V355A
As to B3, the “fold change of barcode share” value under setting [1] is 0.228 ± 0.16 and the “fold change of barcode share” value under setting [2] is 0.00561 ± 0.00083.

B4: murE I64W (protein)
chain: B1 chain with I64W, Q204F
On to B4, for which the “fold change of barcode share” value reads like this: under setting [1], 0.526 ± 0.32; under setting [2], less than 0.0105.

B5: murE W381A (protein)
chain: B1 chain with Q204F, W381A
Turning to B5, the “fold change of barcode share” value is 0.132 ± 0.02 under setting [1] and 0.0151 ± 0.018 under setting [2].

B6: murE V463A (protein)
chain: B1 chain with Q204F, V463A
For B6, the “fold change of barcode share” value stood at 0.331 ± 0.24 under setting [1] and 0.00643 ± 0.0035 under setting [2].

B7: murE M141Q (protein)
chain: B1 chain with M141Q, Q204F
Take B7: the “fold change of barcode share” value under setting [1] worked out at 0.203 ± 0.045 and the “fold change of barcode share” value under setting [2] was 0.0244 ± 0.024.

B8: murE I64Q (protein)
chain: B1 chain with I64Q, Q204F
In the case of B8, the “fold change of barcode share” value is 0.275 ± 0.055 under setting [1] and less than 0.0108 under setting [2].

B9: murE I64P (protein)
chain: B1 chain with I64P, Q204F
With B9, under setting [1], the “fold change of barcode share” value was 0.0426 ± 0.036.

B10: murE V356A (protein)
chain: B1 chain with Q204F, V356A
Consider B10, for which the “fold change of barcode share” value runs as follows: under setting [1], 0.152 ± 0.051; under setting [2], 0.00963 ± 0.011.
